Source: the BET-seq Pho4 binding data (Le et al. 2018)
The list shows a part of the results. Values were computed here from the reads of four pooled replicates and scatter widely.

Target: T1, Pho4 (S. cerevisiae) (UniProt P07270)
T1 sequence: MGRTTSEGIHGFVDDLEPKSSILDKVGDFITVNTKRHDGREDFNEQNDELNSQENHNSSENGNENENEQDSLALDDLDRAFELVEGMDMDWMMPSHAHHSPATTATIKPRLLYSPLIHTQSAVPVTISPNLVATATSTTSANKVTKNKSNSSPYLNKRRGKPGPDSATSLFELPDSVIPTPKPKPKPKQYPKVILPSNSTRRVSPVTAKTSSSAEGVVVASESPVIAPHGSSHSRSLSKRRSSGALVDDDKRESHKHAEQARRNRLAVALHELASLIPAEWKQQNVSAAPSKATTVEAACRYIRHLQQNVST
Assay: relative binding free energy (BET-seq); higher = weaker binding
Details: reference: library average

Sequence	relative binding free energy [kcal/mol]
ATGTGCACGTGTCGGC	-0.14
CGTGGCACGTGAAGTT	0.17
AGTGACACGTGGAGTC	0.24
GGCGACACGTGGTGGG	-0.07
CGGATCACGTGTGGTA	0.13
TATGTCACGTGTAGGC	0.23
TGGTTCACGTGTATAT	0.21
TTTGACACGTGTCATT	0
GGCTTCACGTGGTTGA	0.27
GGGTCCACGTGGGGGA	-0.13
TATAACACGTGAGTTA	0.24
ATAGTCACGTGGCGTT	-0.03
GGGAACACGTGGATGG	0.09
GGTTTCACGTGATCTA	0.45
TGGTTCACGTGGCTGC	0.22
GGGCGCACGTGGTATT	0.01
ATGTGCACGTGGAGTC	0.06
TCGTGCACGTGTTATT	-0.12
TGGTCCACGTGATAGG	0.05
TTGATCACGTGGCCGG	0.03
TTTAACACGTGCTTGG	0.02
GTAGGCACGTGTGGTG	0.02
AGGGGCACGTGACGCA	-0.02

Sequence	relative binding free energy [kcal/mol]
ATTGTCACGTGGGTTT	-0.05
GGCACCACGTGGGAGG	-0.1
GGCAGCACGTGAGGAG	0.21
CGGTTCACGTGATGTA	0.26
TTTTGCACGTGAAGGT	0.22
TGATTCACGTGTCATT	0.26
AATGGCACGTGGTAAT	-0.14
TGGCGCACGTGTTATT	-0.11
AGAGTCACGTGTATGC	0.15
AGGGTCACGTGTGTAT	0.21
TGTGACACGTGGAGAG	-0.1
GTAAGCACGTGTATAG	-0.09
AGAGGCACGTGGATTG	-0.18
TTCGTCACGTGTAGTA	0.09
CGGAGCACGTGGTTCG	-0.03
TTTCCCACGTGGTTGT	-0.04
TTTTTCACGTGAGAAG	0.31
TTAGGCACGTGGTGTC	-0.2
ATTGGCACGTGGGCAT	-0.2
GGATACACGTGTATGA	0.14
GTCTGCACGTGTGATA	0.21
CTTCGCACGTGTTTGT	-0.23
GTTTTCACGTGGGTCT	0.27

Sequence	relative binding free energy [kcal/mol]
GGTCGCACGTGAGGGG	0.18
TATGACACGTGGGATC	0.18
GTTTGCACGTGGGGTG	-0.12
CGGGGCACGTGGTTGG	-0.11
TAGGCCACGTGGGAAG	-0.15
CTTTGCACGTGGAATT	0.16
GTTTGCACGTGGGGTT	-0.02
GTGTGCACGTGTATGC	0.05
GCGTGCACGTGGGTCG	-0.07
TGAGTCACGTGGATTA	0.16
TGGGGCACGTGGTAAC	-0.18
GTGTGCACGTGTAACT	0.18
GGTGTCACGTGCCTTG	0.06
ATGTGCACGTGCGTAG	-0.22
ACTGTCACGTGGGAGG	-0.08
AGGGTCACGTGTTAAA	0.09
ATTTGCACGTGGCTGA	-0.13
TTGGCCACGTGATGGG	0.06
GAGATCACGTGGGGAG	0.2
GAGTGCACGTGGAGTA	-0.05
TTATACACGTGTTGCT	-0.11
CGGGGCACGTGTGCGG	-0.13
TTTACCACGTGTTGGG	-0.02

Sequence	relative binding free energy [kcal/mol]
TCGGCCACGTGGTGGG	-0.07
ATCTTCACGTGGTTAG	0.19
GGCTACACGTGGGTGC	-0.06
TTGATCACGTGATGTA	0.22
TATGGCACGTGATGAT	0.05
TGCTGCACGTGGGATA	-0.21
TGGTTCACGTGTGTGG	0.33
CGGGGCACGTGAATTT	0.29
TAAGTCACGTGGTTGG	0.04
CAGAGCACGTGGTGGT	-0.31
TTATTCACGTGTCATT	0.24
CTGAACACGTGGGTTT	-0.1
TGAGGCACGTGAGAGA	0.09
ATCATCACGTGTGTGA	0.15
ATGAGCACGTGTCGAG	-0.13
TGGGGCACGTGTGCTA	-0.04
TTATTCACGTGACGTG	0.19
TGGTGCACGTGTAGCG	0.1
GGAGCCACGTGTGTAT	0.02
TCCAGCACGTGTGGGT	-0.11
ATAGGCACGTGGTAGG	-0.15
TGGAACACGTGGGGAC	-0.07
TCTATCACGTGGTGGG	0.15

Sequence	relative binding free energy [kcal/mol]
TCAGGCACGTGTTTTG	-0.04
TTTGTCACGTGTTGTT	0.13
GTCGGCACGTGGAGTT	0.13
GTGTGCACGTGTTAGG	0.01
GGTGACACGTGGTCGC	-0.08
TGGTGCACGTGAAGGA	0.11
AAGGTCACGTGTTGGT	0.16
TGGTGCACGTGGATTG	0.03
TACAGCACGTGTTTGT	0.01
CAGTGCACGTGTTGGC	0.05
TGAATCACGTGAGGCT	0.26
TATGTCACGTGTCAGT	0.15
GTGGGCACGTGGGAAC	-0.14
TGACGCACGTGGTGCG	-0.25
TGATACACGTGTCGTG	0.04
TCGGTCACGTGGTTTT	0.15
TTCTACACGTGAAGGT	0.3
ATGGGCACGTGGCGGA	-0.19
AACTTCACGTGGGGAT	0.22
CTAGGCACGTGTTGGG	-0.07
GGGGTCACGTGTGATC	0.16
CGGGGCACGTGGGGCC	-0.38
TGATGCACGTGTTTGC	0.02
